Results reported in a collection of fitness landscapes (doi:10.1016/j.celrep.2020.107928).
Whole data set: some 81,000 sequences, median “one-hybrid fitness for binding parS DNA” near -0.17, cut for the highest 2% near 0.51. Some of the results follow.

B1: Caulobacter ParB omega fusion; a variant is named by its letters at X, in order, B8GW30 (parent)
chain: MESVVVGEPGMSEGRRGLGRGLSALLGEVDAAPAQAPGEQLGGSREAPIEILQRNPDQPRRTFREEDLEDLSNSIREKGVLQPILVRPSPDTAGEYQIVAGERAWRAAQRAGLKTVPIMVRELDDLAVLEIGIIENVQRADLNVLEEALSYKVLMEKFERTQENIAQTIGKSXSHVANXMRLLXLPDEVQSYLVSGELTAXHARAIAAAADPVALAKQIIEGGLSVRETEALARKAPNLSAGKSKGGRPPRVKDTDTQALESDLSSVLGLDVSIDHRGSTGTLTITYATLEQLDDLCNRLTRGI

Variants of: B1
Assay: one-hybrid fitness for binding parS DNA (scaled: cognate 1, non-cognate 0); higher = stronger binding
Settings: with parS DNA site
Outline: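 The reporter was HIS3, with the binding site 19 bp from the promoter, in E. coli USO used for bacterial one-hybrid selection of Caulobacter ParB libraries with four specificity codons randomised. Growth was on M9 lacking histidine, with 0.1 mM IPTG and 5 mM 3-AT, for 48 hours at 37°C. Illumina sequencing covered plasmids before and after selection; three replicate libraries were pooled and variants with under 10 reads dropped. A fitness score is the log change in variant-to-wild-type read ratio, rescaled to the cognate and non-cognate references.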

Variant	one-hybrid fitness for binding parS DNA
FGSS	≤ 0.2
SYHG	≤ 0.2
SDRI	≤ 0.2
IVNL	≤ 0.2
PGKM	≤ 0.2
AISI	≤ 0.2
ESGW	≤ 0.2
QRYT	≤ 0.2
RTNA	0.722
MWPE	≤ 0.2
SRHC	≤ 0.2
TSNM	≤ 0.2
LAVS	≤ 0.2
KIMF	≤ 0.2
ICCR	≤ 0.2
KSLF	≤ 0.2
DHRT	≤ 0.2
KGTG	≤ 0.2
NGSP	≤ 0.2
TMCI	≤ 0.2
SLFG	≤ 0.2
PHIY	≤ 0.2
SSKF	≤ 0.2
YQVV	≤ 0.2
DQQS	≤ 0.2
CIKC	≤ 0.2

Variant	one-hybrid fitness for binding parS DNA
RVDD	≤ 0.2
QLKK	≤ 0.2
NVHT	≤ 0.2
PRLH	≤ 0.2
RLWN	0.443
RNVA	0.312
FNTM	≤ 0.2
ACNI	≤ 0.2
NDFR	≤ 0.2
QPNP	≤ 0.2
LLWN	≤ 0.2
QPHE	≤ 0.2
KSTV	≤ 0.2
RVQN	0.417
RQTL	≤ 0.2
YMAR	≤ 0.2
GPVK	≤ 0.2
AMQN	≤ 0.2
WPHG	≤ 0.2
LNGG	≤ 0.2
WIMS	≤ 0.2
VHSW	≤ 0.2
EFYK	≤ 0.2
AYRE	≤ 0.2
RFRL	≤ 0.2
MPFS	≤ 0.2

Variant	one-hybrid fitness for binding parS DNA
GRQW	≤ 0.2
GGSD	≤ 0.2
TSPQ	≤ 0.2
PNEL	≤ 0.2
IIVL	≤ 0.2
GAQI	≤ 0.2
VAIR	≤ 0.2
WSLR	≤ 0.2
DGPW	≤ 0.2
LVYF	≤ 0.2
NGSL	≤ 0.2
RIAV	≤ 0.2
NVVV	≤ 0.2
SWRT	≤ 0.2
YGAI	≤ 0.2
PYLY	≤ 0.2
SPQP	≤ 0.2
YFRC	≤ 0.2
DLGP	≤ 0.2
FHRS	≤ 0.2
IYLV	≤ 0.2
MQGD	≤ 0.2
KMAS	≤ 0.2
KAPR	≤ 0.2
CLLG	≤ 0.2
GWRC	≤ 0.2

Variant	one-hybrid fitness for binding parS DNA
EHTD	≤ 0.2
VGDS	≤ 0.2
SLII	≤ 0.2
DCYG	≤ 0.2
TTNN	≤ 0.2
NCKS	≤ 0.2
AQHS	≤ 0.2
AFSW	≤ 0.2
MHHD	≤ 0.2
VLWL	≤ 0.2
WQSC	≤ 0.2
MKPA	≤ 0.2
YQST	≤ 0.2
HPRA	≤ 0.2
VYSK	≤ 0.2
VIWC	≤ 0.2
QWAV	≤ 0.2
GPLR	≤ 0.2
PFSR	≤ 0.2
AHGN	≤ 0.2
HCTF	≤ 0.2
VTQT	≤ 0.2
TSVS	≤ 0.2
PCCY	≤ 0.2
RKAL	≤ 0.2
QSCC	≤ 0.2

Variant	one-hybrid fitness for binding parS DNA
PECT	≤ 0.2
HFLT	≤ 0.2
HHEG	≤ 0.2
YLSQ	≤ 0.2
VYKP	≤ 0.2
HAGM	≤ 0.2
ASML	≤ 0.2
QHPC	≤ 0.2
VSMS	≤ 0.2
GVGT	≤ 0.2
TSTV	≤ 0.2
ACHK	≤ 0.2
ALYC	≤ 0.2
HFKT	≤ 0.2
SNGV	0.233
RKIN	0.322
QSTA	≤ 0.2
RPYD	≤ 0.2
PKMN	≤ 0.2
KEHT	≤ 0.2
WYVV	≤ 0.2
FVRM	≤ 0.2
QLQY	≤ 0.2
RHEI	≤ 0.2
CTRF	≤ 0.2
MRER	≤ 0.2

Variant	one-hybrid fitness for binding parS DNA
KRSV	≤ 0.2
DHKT	≤ 0.2
CIER	≤ 0.2
SIRH	≤ 0.2
DQPM	≤ 0.2
RPNL	≤ 0.2
SPST	≤ 0.2
STRR	≤ 0.2
PSHL	≤ 0.2
AFNS	≤ 0.2
SPNT	≤ 0.2
HALV	≤ 0.2
ARSN	≤ 0.2
QCCC	≤ 0.2
RGCF	≤ 0.2
EKER	≤ 0.2
TAIT	≤ 0.2
PDTE	≤ 0.2
VYSN	≤ 0.2
VATG	≤ 0.2
ASKY	≤ 0.2
DLPY	≤ 0.2
GADV	≤ 0.2
